Reference: article PMC4336329 (PLoS ONE, 2015)
The campaign covered roughly 310,000 compounds. About 14,000 (4.5%) showed an effect of 50% or more. Effects have a minus sign here. Some of the results follow.

Biological target: human ether-à-go-go-related gene (hERG) potassium channel (human, UniProt Q12809)
Assay: primary screen, population patch clamp on CHO cells stably expressing hERG
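Also: peak tail current of the secondary pulse compared with the same well before compound.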

Chain of human ether-à-go-go-related gene (hERG) potassium channel (Q12809 whole entry, looked up): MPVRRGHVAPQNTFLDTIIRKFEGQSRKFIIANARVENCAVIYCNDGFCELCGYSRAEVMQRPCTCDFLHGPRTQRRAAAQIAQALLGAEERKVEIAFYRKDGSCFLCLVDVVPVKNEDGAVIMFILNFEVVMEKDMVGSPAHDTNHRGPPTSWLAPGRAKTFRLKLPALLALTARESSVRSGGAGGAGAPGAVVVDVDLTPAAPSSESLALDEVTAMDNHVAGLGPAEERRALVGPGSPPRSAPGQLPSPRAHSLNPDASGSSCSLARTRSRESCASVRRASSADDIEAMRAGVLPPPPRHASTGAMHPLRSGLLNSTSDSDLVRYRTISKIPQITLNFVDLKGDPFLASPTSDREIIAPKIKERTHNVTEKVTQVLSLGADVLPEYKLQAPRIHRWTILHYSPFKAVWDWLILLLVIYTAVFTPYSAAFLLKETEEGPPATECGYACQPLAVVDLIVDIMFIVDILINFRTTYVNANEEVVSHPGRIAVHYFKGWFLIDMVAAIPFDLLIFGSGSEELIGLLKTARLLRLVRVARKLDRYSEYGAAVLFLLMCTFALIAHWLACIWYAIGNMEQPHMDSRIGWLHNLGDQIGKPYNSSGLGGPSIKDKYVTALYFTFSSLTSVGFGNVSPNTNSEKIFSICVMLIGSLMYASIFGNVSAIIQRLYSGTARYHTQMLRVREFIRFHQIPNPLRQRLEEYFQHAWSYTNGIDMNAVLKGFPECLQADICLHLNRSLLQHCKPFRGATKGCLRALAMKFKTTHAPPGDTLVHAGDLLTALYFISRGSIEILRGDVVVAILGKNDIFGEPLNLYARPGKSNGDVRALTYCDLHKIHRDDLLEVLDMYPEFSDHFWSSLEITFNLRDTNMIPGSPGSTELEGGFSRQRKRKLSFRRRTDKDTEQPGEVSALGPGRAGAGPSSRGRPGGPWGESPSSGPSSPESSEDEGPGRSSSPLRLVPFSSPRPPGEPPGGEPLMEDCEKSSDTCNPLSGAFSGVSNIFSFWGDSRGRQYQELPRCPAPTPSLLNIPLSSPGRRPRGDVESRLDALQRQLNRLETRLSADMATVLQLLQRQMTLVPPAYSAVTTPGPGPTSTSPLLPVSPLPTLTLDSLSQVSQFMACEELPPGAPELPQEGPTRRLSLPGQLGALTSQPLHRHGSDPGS

| SMILES | hERG current change (%, negative = inhibition) at 10uM [%] |
| --- | --- |
| CC(NC(=O)CSc1nc2c(c(C(F)(F)F)n1)CCc1ccccc1-2)c1ccccc1 (stereo not drawn) | 5.13 |
| COc1ccc(C2C(C(=O)C(C)(C)C)=C(O)C(=O)N2Cc2ccccc2)cc1 (stereo not drawn) | 10.5 |
| Cc1ccc(S(=O)(=O)N2CCC(C(=O)N3CCC(C(=O)NCc4cccnc4)CC3)CC2)cc1 | 9.69 |
| CS(=O)(=O)c1ccc(Cl)c(NC(=O)c2cc(S(=O)(=O)N3CCOCC3)ccc2N2CCCC2)c1 | -81.3 |
| CC1CC(C)CN(CCCNC(=O)Cc2c(C(=O)O)n(C)c3ccccc23)C1 (stereo not drawn) | -15.9 |
| O=C(Cc1ccccc1)Nc1ccc(CN2CCOCC2)cc1 | -9.66 |
| CCn1cc(C2C3=C(CC(C)(C)CC3=O)N(c3ccccc3)C3=C2C(=O)CC(C)(C)C3)c(C)n1 | -2.03 |
| COC(=O)N/N=C\c1ccc(OC(=O)c2ccco2)cc1 | 19.8 |
| Cc1cc(C)cc(NC(=O)NC2CCN(CC(=O)Nc3cccc(Cl)c3C)CC2)c1 | -2.07 |
| COc1ccccc1N1CCN(C(=O)CCc2c[nH]c3ccccc23)CC1 | 3.69 |
| COc1ccc(S(=O)(=O)N(CC(=O)N2CCCCCC2)c2ccccc2OC)cc1 | -27.2 |
| O=P(COCCOCCOCCOCP(=O)(c1ccccc1)c1ccccc1)(c1ccccc1)c1ccccc1 | -21.1 |
| COc1ccc(C(C(=O)NC2CCCC2)N(CC2CCCO2)C(=O)Cc2cccs2)cc1OC (stereo not drawn) | 2.61 |
| CC1CCCCN1S(=O)(=O)c1cccc2nonc12 (stereo not drawn) | 4.3 |
| COCCn1c(SCC(=O)NC(=O)NCc2ccccc2)nc2ccccc2c1=O | -1.29 |
| Cc1ccc(S(=O)(=O)N2CCOCC2)cc1C(=O)OCC(=O)NCc1ccccc1 | -20.2 |
| CCN(CC)CCNC(=O)c1ccc(NC2=NC3CS(=O)(=O)CC3S2)cc1 (stereo not drawn) | 12.1 |
| CC(C)CCNC(=O)C1CC(c2cccc([N+](=O)[O-])c2)=NO1 (stereo not drawn) | -19.4 |
| Cc1ccc(S(=O)(=O)Nc2ncnc3sc(C)c(C)c23)cc1 | -9.2 |
| CSc1ccccc1C(=O)NC(C)c1ccc(-n2ccnc2)cc1 (stereo not drawn) | -39.7 |
| COc1cc(NC(=S)N2CCN(S(=O)(=O)c3ccccc3)CC2)cc(OC)c1 | 6.68 |

| SMILES | hERG current change (%, negative = inhibition) at 10uM [%] |
| --- | --- |
| Cc1onc(-c2ccccc2)c1C(=O)Nc1ccc(S(=O)(=O)N2CCCC2)cc1 | -14.2 |
| O=C(COC(=O)Cc1ccccc1)Nc1ccc(SC(F)F)cc1 | 5.27 |
| CCCCCCNc1cc(C)oc(=O)c1C(C)=O | -34.2 |
| Cc1ccc(CN2C(=O)N/C(=C\c3ccc(N4CCOCC4)cc3)C2=O)cc1 | 4.01 |
| O=C(Nc1ccc(C(=O)NC2CCCCC2)cc1)c1cccnc1 | 25.4 |
| Cn1c(=O)c(C(=O)COC(=O)c2cc(C(F)(F)F)nc3ccccc23)c(N)n(Cc2ccccc2)c1=O | -4.7 |
| COc1ccc(C(=O)Nc2ccc(S(=O)(=O)N3CCCCC3C)cc2)c(OC)c1OC (stereo not drawn) | -6.46 |
| Cc1cc(C)c(C)c(S(=O)(=O)NCCCn2ccnc2)c1C | 3.09 |
| COc1ccc(CC(=O)NCc2ccc3c(c2)cc(C)n3C)cc1OC | 0.894 |
| CCCCOc1ccc(C(=O)Nc2ccc3c(c2)C(=O)NC3=O)cc1 | 4.43 |
| COc1ccc(C2Nc3ccccc3C(=O)N2Cc2ccco2)cc1CN1C(=O)c2ccccc2C1=O (stereo not drawn) | -20.7 |
| COc1ccc(CN(C)C(=O)c2cnc(OC)cc2C(F)(F)F)c(OC)c1 | -15.6 |
| Cc1ccc2oc(C(=O)NCCCN3CCOCC3)c(C)c2c1 | -10.6 |
| O=C(Nc1cnn(Cc2ccc(F)cc2)c1)c1cnn2c(C(F)F)cc(-c3ccccc3)nc12 | 5.3 |
| CC1S/C(=N/N=C/c2cccc([N+](=O)[O-])c2)NC1=O (stereo not drawn) | 5.33 |
| Cc1ccc(Cn2c(C)nc3c(c2=O)c2nc4ccccc4nc2n3Cc2ccco2)cc1 | 5.72 |
| O=C(Nc1ccccc1C(=O)N/N=C/c1ccc(F)cc1)c1ccccc1Br | -10.3 |
| C#Cc1ccc([C@@H]2C=C(C(=O)OCC=C)O[C@H](OCCCCO)C2)cc1 | -10.7 |
| Cc1cccnc1NC(=O)Nc1cccc2ccccc12 | -0.189 |
| CCOc1cc(C(=O)OCc2cccc(OC)c2OC)ccc1OCC(=O)N1CCOCC1 | -11 |
| Cc1ccc2nc(NC(=S)NC(=O)c3ccco3)sc2c1 | 11.7 |
